Where a chain is given by its changes, count along the chain named.
B1: hT4VL.FRv40074 (antibody, human IgG1, kappa)
heavy: EVQLVESGGGLVQPGGSLRLSCAASGYTFTSYVMHWVRQAPGKGLEWVSAINPYNDGNYYADSVKGRFTISRDNSRKTLYLQMNSLRAEDTAVYYCARGAYKRGYAMDYWGQGTTVTVSSASTKGPSVFPLAPSSKSTSGGTAALGCLVKDYFPEPVTVSWNSGALTSGVHTFPAVLQSSGLYSLSSVVTVPSSSLGTQTYICNVNHKPSNTKVDKKV[human IgG1 Fc not given here]GSGGGSVTGYRLFEEIL
light: DLVMTQSPSSLSASVGDRVTITCKSSQDLFNSRTRKNYLAWYQQKPGKAPKLLIYWASTRESGVPARFSGSGSGTDFTLTISSLEPEDFAVYYCQQYYYHMYTFGQGTKVEIKRTVAAPSVFIFPPSDEQLKSGTASVVCLLNNFYPREAKVQWKVDNALQSGNSQESVTEQDSKDSTYSLSSTLTLSKADYEKHKVYACEVTHQGLSSPVTKSFNRGEC
B2: hT4VL.FRv40353 (antibody, human IgG1, kappa)
heavy: B1 heavy
light: B1 light with D28S, Y97N
B3: hT4VL.FRv40416 (antibody, human IgG1, kappa)
heavy: B1 heavy
light: B1 light with D28S, M101D
B4: hT4VL.FRv40201 (antibody, human IgG1, kappa)
heavy: B1 heavy
light: B1 light with D28S, R35E
B5: hT4VL.FRv40425 (antibody, human IgG1, kappa)
heavy: B1 heavy
light: B1 light with D28S, M101P
B6: hT4VL.FRv40182 (antibody, human IgG1, kappa)
heavy: B1 heavy
light: B1 light with D28S, T34D
B7: hT4VL.FRv40346 (antibody, human IgG1, kappa)
heavy: B1 heavy
light: B1 light with D28S, Y97F
B8: hT4VL.FRv40381 (antibody, human IgG1, kappa)
heavy: B1 heavy
light: B1 light with D28S, Y99E
B9: hT4VL.FRv40212 (antibody, human IgG1, kappa)
heavy: B1 heavy
light: B1 light with D28S, R35S
B10: hT4VL.FRv40228 (antibody, human IgG1, kappa)
heavy: B1 heavy
light: B1 light with D28S, K36Q
B11: hT4VL.FRv40208 (antibody, human IgG1, kappa)
heavy: B1 heavy
light: B1 light with D28S, R35M
B12: hT4VL.FRv40203 (antibody, human IgG1, kappa)
heavy: B1 heavy
light: B1 light with D28S, R35G
B13: hT4VL.FRv40324 (antibody, human IgG1, kappa)
heavy: B1 heavy
light: B1 light with D28S, Q95Y
B14: hT4VL.FRv40128 (antibody, human IgG1, kappa)
heavy: B1 heavy
light: B1 light with D28S, N31D
B15: hT4VL.FRv40313 (antibody, human IgG1, kappa)
heavy: B1 heavy
light: B1 light with D28S, Q95I
B16: hT4VL.FRv40321 (antibody, human IgG1, kappa)
heavy: B1 heavy
light: B1 light with D28S, Q95T
B17: hT4VL.FRv40312 (antibody, human IgG1, kappa)
heavy: B1 heavy
light: B1 light with D28S, Q95H
B18: hT4VL.FRv40399 (antibody, human IgG1, kappa)
heavy: B1 heavy
light: B1 light with D28S, H100E
B19: hT4VL.FRv40345 (antibody, human IgG1, kappa)
heavy: B1 heavy
light: B1 light with D28S, Y97E
B20: hT4VL.FRv40010 (antibody, human IgG1, kappa)
heavy: B1 heavy
light: B1 light with K24N, D28S
B21: hT4VL.FRv40424 (antibody, human IgG1, kappa)
heavy: B1 heavy
light: B1 light with D28S, M101N
B22: hT4VL.FRv40178 (antibody, human IgG1, kappa)
heavy: B1 heavy
light: B1 light with D28S, R33V
B23: hT4VL.FRv40171 (antibody, human IgG1, kappa)
heavy: B1 heavy
light: B1 light with D28S, R33L
B24: hT4VL.FRv40255 (antibody, human IgG1, kappa)
heavy: B1 heavy
light: B1 light with D28S, Y38E
B25: hT4VL.FRv40435 (antibody, human IgG1, kappa)
heavy: B1 heavy
light: B1 light with D28S, Y102E
B26: hT4VL.FRv40408 (antibody, human IgG1, kappa)
heavy: B1 heavy
light: B1 light with D28S, H100Q
B27: hT4VL.FRv40224 (antibody, human IgG1, kappa)
heavy: B1 heavy
light: B1 light with D28S, K36L
B28: hT4VL.FRv40444 (antibody, human IgG1, kappa)
heavy: B1 heavy
light: B1 light with D28S, Y102P
B29: hT4VL.FRv40176 (antibody, human IgG1, kappa)
heavy: B1 heavy
light: B1 light with D28S, R33S
B30: hT4VL.FRv40057 (antibody, human IgG1, kappa)
heavy: B1 heavy
light: B1 light with Q27E, D28S
B31: hT4VL.FRv40407 (antibody, human IgG1, kappa)
heavy: B1 heavy
light: B1 light with D28S, H100P
B32: hT4VL.FRv40480 (antibody, human IgG1, kappa)
heavy: B1 heavy
light: B1 light with D28S, R33K, R35S
B33: hT4VL.FRv40482 (antibody, human IgG1, kappa)
heavy: B1 heavy
light: B1 light with K24N, D28S, N31D
B34: hT4VL.FRv40481 (antibody, human IgG1, kappa)
heavy: B1 heavy
light: B1 light with K24N, D28S, R33K
B35: hT4VL.FRv40483 (antibody, human IgG1, kappa)
heavy: B1 heavy
light: B1 light with D28S, N31D, T34D

target: ECM (extracellular matrix); test: ECL plate assay on coated ECM (Matrigel)

| ECM binding vs Control Ab (pH 5.8) (fold vs Control Ab) | ECM binding vs Control Ab (pH 7.4) (fold vs Control Ab) | Binder |
| --- | --- | --- |
| 96.1 | 6.8 | B1 |
| 101 | 15.2 | B2 |
| 95.9 | 10.4 | B3 |
| 58.2 | 3.5 | B4 |
| 98.5 | 12.1 | B5 |
| 34.5 | 5.2 | B6 |
| 99.2 | 16.3 | B7 |
| 97.4 | 7.3 | B8 |
| 93.9 | 6.1 | B9 |
| 63.7 | 7.7 | B10 |
| 80.1 | 5.2 | B11 |
| 90.2 | 5.3 | B12 |
| 98.1 | 14 | B13 |
| 36.3 | 4.7 | B14 |
| 102 | 14.5 | B15 |
| 102 | 19.3 | B16 |

| ECM binding vs Control Ab (pH 5.8) (fold vs Control Ab) | ECM binding vs Control Ab (pH 7.4) (fold vs Control Ab) | Binder |
| --- | --- | --- |
| 100 | 14 | B17 |
| 53.1 | 8.6 | B18 |
| 97.2 | 9.6 | B19 |
| 102 |  | B20 |
| 98.2 | 11 | B21 |
| 27.7 | 2.6 | B22 |
| 28.1 | 2.9 | B23 |
| 31.3 | 4.5 | B24 |
| 97.8 | 15 | B25 |
| 93.8 | 15.9 | B26 |
| 76.9 | 8.6 | B27 |
| 96.4 | 14.9 | B28 |
| 35.4 | 3.3 | B29 |
| 103 | 9 | B30 |
| 81.3 | 13.1 | B31 |

target: ECM (extracellular matrix); test: ECL plate assay on coated ECM (Matrigel); remark: another data set of the same source

| ECM binding vs Control Ab (pH 5.8) (fold vs Control Ab) | ECM binding vs Control Ab (pH 7.4) (fold vs Control Ab) | Binder |
| --- | --- | --- |
| 42.5 | 3.38 | B32 |
| 22.1 | 2.83 | B33 |
| 73.8 | 6.21 | B34 |
| 11.1 | 2.11 | B35 |

Source: patent publication US20240124614A1
